The whole screen tested about 220,000 compounds, of which about 5,700 (2.6%) were called active. Inconclusive results, whose numbers are uncertain, are shown with a selection of clear calls. The call rests on the fitted dose curve; in most records, active means well fitted inhibition curve with a large enough effect; inconclusive means small, poorly fitted or top-dose-only effect; inactive means no such curve, though single readings can be large or run the other way. Potencies of inconclusive entries are doubtful fits and often do not repeat.
What follows are molecules tested against Lysine-specific demethylase 5B (Homo sapiens) (UniProt Q9UGL1) (assay: Primary screen for KDM5B Histone Demethylases FDH-coupled qHTS). Settings: FDH-coupled NADH fluorescence (FDH is formaldehyde dehydrogenase); series mostly up to 57.7 µM.
Sequence of UniProt Q9UGL1 (Q9UGL1 whole entry, looked up): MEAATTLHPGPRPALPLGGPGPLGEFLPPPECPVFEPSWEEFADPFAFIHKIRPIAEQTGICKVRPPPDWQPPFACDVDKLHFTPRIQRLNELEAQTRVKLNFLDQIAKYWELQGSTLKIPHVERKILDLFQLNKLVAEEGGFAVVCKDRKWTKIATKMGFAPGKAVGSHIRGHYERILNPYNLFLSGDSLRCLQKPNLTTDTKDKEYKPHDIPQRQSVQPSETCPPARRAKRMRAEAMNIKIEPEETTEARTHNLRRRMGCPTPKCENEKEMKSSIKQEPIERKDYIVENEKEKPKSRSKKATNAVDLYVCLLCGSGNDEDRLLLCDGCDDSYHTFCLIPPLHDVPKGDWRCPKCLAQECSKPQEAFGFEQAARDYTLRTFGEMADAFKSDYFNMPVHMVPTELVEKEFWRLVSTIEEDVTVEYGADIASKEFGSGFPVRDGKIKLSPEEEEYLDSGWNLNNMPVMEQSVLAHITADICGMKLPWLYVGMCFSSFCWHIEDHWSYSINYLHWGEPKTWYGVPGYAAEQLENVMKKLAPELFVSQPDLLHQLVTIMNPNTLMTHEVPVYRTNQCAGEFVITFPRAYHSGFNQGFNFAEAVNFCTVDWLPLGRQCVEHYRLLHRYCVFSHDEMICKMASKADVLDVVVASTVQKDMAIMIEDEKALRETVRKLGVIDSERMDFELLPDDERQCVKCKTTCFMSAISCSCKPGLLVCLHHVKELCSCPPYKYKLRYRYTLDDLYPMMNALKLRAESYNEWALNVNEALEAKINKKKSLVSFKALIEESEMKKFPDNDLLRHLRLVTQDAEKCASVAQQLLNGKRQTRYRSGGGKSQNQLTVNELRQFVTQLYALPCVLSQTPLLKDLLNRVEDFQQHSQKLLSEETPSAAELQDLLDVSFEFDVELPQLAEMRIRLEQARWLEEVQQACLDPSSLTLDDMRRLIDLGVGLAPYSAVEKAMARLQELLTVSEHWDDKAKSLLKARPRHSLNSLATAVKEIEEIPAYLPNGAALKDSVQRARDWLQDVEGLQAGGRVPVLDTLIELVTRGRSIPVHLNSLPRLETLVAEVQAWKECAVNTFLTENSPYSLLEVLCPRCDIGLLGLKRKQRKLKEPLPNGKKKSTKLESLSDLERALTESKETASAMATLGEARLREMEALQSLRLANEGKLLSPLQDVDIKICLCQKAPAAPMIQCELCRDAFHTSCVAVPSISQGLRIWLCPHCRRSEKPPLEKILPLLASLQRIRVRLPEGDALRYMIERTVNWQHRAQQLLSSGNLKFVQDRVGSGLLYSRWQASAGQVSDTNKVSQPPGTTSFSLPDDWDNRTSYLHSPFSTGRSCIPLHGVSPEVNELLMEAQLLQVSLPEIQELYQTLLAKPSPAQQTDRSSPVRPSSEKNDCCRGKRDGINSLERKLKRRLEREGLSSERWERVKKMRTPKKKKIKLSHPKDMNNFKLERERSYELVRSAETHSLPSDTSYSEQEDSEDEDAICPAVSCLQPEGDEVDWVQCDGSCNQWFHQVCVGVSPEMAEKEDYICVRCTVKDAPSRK
In short: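 Measured: NADH fluorescence change, 30 min, RT. System: KDM5BΔAP 200 nM final, H3K4me3 peptide, α-KG, Fe(II), ascorbate, NAD⁺ plus FDH, pH 7.5 HEPES. Compounds: titrated, 10 min pre-incubation with enzyme.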
With `COc1ccc(-c2cc3ccc(OS(=O)(=O)c4ccc(F)cc4)cc3oc2=O)cc1OC` the Potency was inconclusive: 1.78 µM [inhibitor, partial curve, poor fit]. With `CCn1ccc(C(=O)N2CCC3(CC2)C(=O)N(C)c2ccccc23)n1` the Potency was “inactive”. `Cc1cccc(CSc2nc3nc[nH]c3c(=O)[nH]2)c1` was tested, and the Potency was “inactive”. For `CCc1ccc(-c2nc(CN3CCCC(C(=O)NCc4ccccc4Cl)C3)c(C)o2)cc1` (stereo unspecified), the Potency was inconclusive: 14.1 µM [inhibitor, partial curve, poor fit]. `O=C(NNC(=O)c1ccc(Cl)cc1Cl)c1cnccn1` was tested, and the Potency was inconclusive: 39.8 µM [inhibitor, single point]. In the case of `CCC(C)NC(=O)Nc1c(NC)c2ccccc2oc1=O` (stereo unspecified), the Potency is reported as “inactive”. In the case of `CCC(=O)N1CCN(C(=O)Cc2ccc(C)c(C)c2)[C@H]2CS(=O)(=O)C[C@H]21`, the Potency is reported as “inactive”. In the case of `O=C(OCC(=O)N1CCC(c2ccccc2)=N1)c1cc2c(s1)CCCC2`, the Potency is reported as “inactive”. With `CC1=C(C)CC(C(=O)NC(C)C(C)(C)C)C(C(=O)O)C1` (stereo unspecified) the Potency was “inactive”. `CCCCN(CCCC)CCn1cnc2c([nH]c3ccc(OC)cc32)c1=O` was tested, and the Potency was inconclusive: 17.8 µM [inhibitor, partial curve, poor fit]. In the case of `CCOC(=O)C1CCCN(C(=O)C2CC(c3ccc(CC)cc3)CN(C(C)=O)C2)C1` (stereo unspecified), the Potency is reported as inconclusive: 31.6 µM [inhibitor, partial curve, poor fit]. For `CC(=O)N1CCN(C(C(=O)O)c2c[nH]c3ccccc23)CC1` (stereo unspecified), the Potency was inconclusive: 39.8 µM [inhibitor, single point]. In the case of `NC(C(=O)O)c1cccnc1` (stereo unspecified), the Potency is reported as inconclusive: 28.2 µM [inhibitor, single point]. For `CCc1c(C)sc2nc(NC(CC)CO)n3nc(-c4ccco4)nc3c12` (stereo unspecified), the Potency was inconclusive: 28.2 µM [inhibitor, single point]. With `c1ccc(Oc2cc3c(cn2)NCCN(CC2CCOCC2)C3)cc1` the Potency was inconclusive: 39.8 µM [inhibitor, partial curve, poor fit]. `c1ccc(-c2nnc3ccc(Nc4ccc(N5CCOCC5)cc4)nn23)nc1` was tested, and the Potency was inconclusive: 39.8 µM [inhibitor, partial curve, poor fit]. With `Cc1nn(Cc2ccccc2)c(C)c1[C@@H]1C=C[C@@H](NS(=O)(=O)c2cccs2)C1` the Potency was “inactive”. With `COC(=O)c1ccccc1NC(=O)NC1CCCCC1` the Potency was inconclusive: 25.1 µM [inhibitor, partial curve, poor fit]. In the case of `Cc1ccc(S(=O)(=O)N(Cc2cc3ccc(C)cc3[nH]c2=O)CC2CCCO2)cc1` (stereo unspecified), the Potency is reported as “inactive”. In the case of `O=C(COC(=O)c1cccnc1Nc1cccc(C(F)(F)F)c1)NCc1ccco1`, the Potency is reported as inconclusive: 39.8 µM [inhibitor, single point]. `O=C(CCc1ncc(-c2ccccc2F)o1)NCc1ccccc1` was tested, and the Potency was “inactive”. With `O=C(Nc1ccc(Cl)c(Cl)c1)c1nn(-c2ccccc2)c(=O)c2ccccc12` the Potency was “inactive”. With `CCc1ccc(/C=N/n2c(COc3ccccc3)n[nH]c2=S)cc1` the Potency was inconclusive: 20 µM [inhibitor, single point]. In the case of `CN(C)N1C(=O)CC(c2cccc(Cl)c2Cl)C2=C1CC(C)(C)CC2=O` (stereo unspecified), the Potency is reported as “inactive”. In the case of `O=C(CN1C(=O)NC(c2ccc(Cl)cc2)C2=C1COC2=O)Nc1cccc(F)c1` (stereo unspecified), the Potency is reported as “inactive”. With `O=S1(=O)CCN(Cc2cccc(Br)c2)c2c(F)nc(N3CCOCC3)c(F)c21` the Potency was inconclusive: 35.5 µM [inhibitor, single point]. With `COc1cc(/C=C(/C#N)C(=O)Nc2cccc3ncccc23)ccc1OCC(C)C` the Potency was inconclusive: 31.6 µM [inhibitor, partial curve, poor fit]. In the case of `COc1ccc(CN2CCNc3cc(Nc4ccccc4)ncc3C2)cc1`, the Potency is reported as inconclusive: 39.8 µM [inhibitor, single point]. In the case of `N#Cc1c(N)nc(CCc2ccccc2)c(C#N)c1N`, the Potency is reported as inconclusive: 20 µM [inhibitor, partial curve, poor fit]. With `Cc1noc(/C=C\c2ccc(S(=O)(=O)N3CCc4ccccc43)cc2)c1NC(=O)C1CC1` the Potency was inconclusive: 17.8 µM [inhibitor, partial curve, poor fit]. For `COC(=O)N1CCn2cc(C(=O)N3CCOCC3)nc2C1`, the Potency was “inactive”. `Cn1c(=O)c2c(nc(Nc3cccc(Cl)c3)n2CC(=O)O)n(C)c1=O` was tested, and the Potency was “inactive”. For `Cc1[nH]c2ccccc2c1C(c1cccc(O)c1)c1c(C)[nH]c2ccccc12`, the Potency was inconclusive: 39.8 µM [inhibitor, single point]. With `C=C(C)/C=C1/C(Cc2ccccc2)N(CC2CC2)C(=N)N1C(=O)OCc1ccccc1` (stereo unspecified) the Potency was inconclusive: 39.8 µM [inhibitor, single point]. `COCCn1c(SCC(=O)c2ccc(Cl)cc2)nnc1-c1ccncc1` was tested, and the Potency was inconclusive: 39.8 µM [inhibitor, single point]. For `CCOC(=O)c1cc(S(=O)(=O)N2CCN(c3cccc(C)c3)C(C)C2)[nH]n1` (stereo unspecified), the Potency was inconclusive: 28.2 µM [inhibitor, partial curve, poor fit]. For `O=C(CCc1nc(CSc2n[nH]c(-c3ccccc3)n2)no1)Nc1ccc2ccccc2c1`, the Potency was “inactive”. For `CC1=C[C@@H](CN2C(=O)C(C)=C(C)C2=O)[C@H](C(C)C)C[C@H]1Cc1nc2c(C)cccc2[nH]1`, the Potency was inconclusive: 20 µM [inhibitor, partial curve, poor fit]. With `Cc1ncccc1C(=O)N1CCCN(C(=O)C2CC2)C(c2ccccc2)CC(=O)NCC1` (stereo unspecified) the Potency was “inactive”. `COc1ccc(-c2nc(C3CC3)nc3c2CN(C(=O)c2ccc(C(F)(F)F)cc2)CC3)cc1` was tested, and the Potency was inconclusive: 39.8 µM [inhibitor, partial curve, poor fit]. For `Cc1ccc2c(n1)N(C)[C@H](CO)CCN(Cc1ccc(C#N)cc1)C2`, the Potency was inconclusive: 39.8 µM [inhibitor, single point]. For `COc1ccc(CC(=O)N2Cc3ccccc3CC3(CCN(C)C3)C2)cc1` (stereo unspecified), the Potency was “inactive”. `CCN(CC(=O)NC(C)C)C(=O)c1cc(C(C)C)nc2ccccc12` was tested, and the Potency was “inactive”. With `Cc1nc2c(ccc3c(C)c(C)[nH]c32)s1` the Potency was “inactive”. `Cc1ncccc1C(=O)N1CCC2(CCN(Cc3ccccn3)CC2)C(CO)C1` (stereo unspecified) was tested, and the Potency was “inactive”. `Fc1ccccc1-c1nc(NC2CCCCC2)c2ccccc2n1` was tested, and the Potency was “inactive”. With `COc1cccc(CN(C)Cc2ccc(-c3ccccc3)cc2)c1` the Potency was inconclusive: 7.94 µM [inhibitor, partial curve, poor fit]. `O=C(c1ccc2c(c1)OCO2)N1CCC(c2nnc3n2CCNC3)CC1` was tested, and the Potency was active: 50.1 µM. For `Cc1ccc(CNC(=O)c2cnc(N3CCCC3)nc2C)cc1`, the Potency was inconclusive: 35.5 µM [inhibitor, single point]. `CC(C)C(CNC(=O)CCc1ncc(-c2ccc(F)cc2)o1)N(C)C` (stereo unspecified) was tested, and the Potency was “inactive”. `Cc1oc(C(O)c2cccc(O)c2)nc1C(=O)Nc1ccc2c(c1)CNC2=O` (stereo unspecified) was tested, and the Potency was inconclusive: 56.2 µM [inhibitor, single point]. `CCC1=NN2C(=N)/C(=C/c3ccc(OS(=O)(=O)c4ccc(C)cc4)c(OC)c3)C(=O)N=C2S1` was tested, and the Potency was inconclusive: 28.2 µM [inhibitor, single point]. With `Cc1noc2c(-c3cnn(C)c3)cc(-c3cccs3)nc12` the Potency was inconclusive: 39.8 µM [inhibitor, partial curve, poor fit]. For `Nc1nccnc1C(=O)NCc1ccc(-n2cccn2)nc1`, the Potency was inconclusive: 28.2 µM [inhibitor, partial curve, poor fit]. With `CN(C(=O)C1(N)CC1)C1CCCN(CCCc2ccccc2)C1` (stereo unspecified) the Potency was inconclusive: 20 µM [inhibitor, partial curve, poor fit]. `O=C(N[C@@H](Cn1cc(F)c(=O)[nH]c1=O)C(=O)O)c1cccs1` was tested, and the Potency was “inactive”. For `CCN(CC(=O)NCc1cccs1)C(=O)C1CC(=O)N(c2cccc3ccccc23)C1` (stereo unspecified), the Potency was “inactive”. For `CCCN1CCN(CCCNC(=O)c2cc3c(=O)[nH]c4ccccc4c3s2)CC1`, the Potency was inconclusive: 31.6 µM [inhibitor, partial curve, poor fit]. `CN(C)CC1(O)CCC2(CCN(C(=O)CCc3nc4ccccc4[nH]3)CC2)CC1` was tested, and the Potency was “inactive”. In the case of `CCOc1nccnc1NC1CCN(C(=O)c2ccc(C)s2)CC1`, the Potency is reported as active: 28.2 µM. For `Cn1c(COc2ccc(Cl)cc2)n[nH]c1=S`, the Potency was “inactive”. `Cn1c(=O)c2ccccc2n(CC(=O)Nc2ccc(Cl)cc2F)c1=O` was tested, and the Potency was inconclusive: 39.8 µM [inhibitor, single point]. In the case of `CCCCCCCCCCCCCCCCCCN(C)C`, the Potency is reported as inconclusive: 39.8 µM [inhibitor, single point]. With `O=C(c1cc2ccccc2[nH]1)N1CCC(c2noc(C3CC3)n2)C1` (stereo unspecified) the Potency was inconclusive: 6.31 µM [inhibitor, partial curve, poor fit]. `CCn1c(CNC(C)c2ccc(F)c(F)c2)nc2cc(S(=O)(=O)N(C)C)ccc21` (stereo unspecified) was tested, and the Potency was “inactive”. With `O=C(NC1CCN(c2cc(-c3ccc(F)cc3)[nH]n2)C1)c1ccccc1Br` (stereo unspecified) the Potency was inconclusive: 12.6 µM [inhibitor, partial curve]. For `COc1ccc(OCC(=O)NC2CCN(c3cc(-c4ccccc4)[nH]n3)CC2)cc1`, the Potency was inconclusive: 28.2 µM [inhibitor, single point]. For `COC(=O)CN1CCN(c2nc3c(c(=O)[nH]c(=O)n3C)n2Cc2cccc(Cl)c2)CC1`, the Potency was “inactive”. With `NC(=O)COc1cccc(C2CC(=O)Nc3nc(N4CCCCC4)sc32)c1` (stereo unspecified) the Potency was inconclusive: 28.2 µM [inhibitor, partial curve, poor fit]. In the case of `COc1cccc2sc(NC(=O)CSc3nncn3-c3ccc(C)cc3)nc12`, the Potency is reported as “inactive”. `CC(=O)N1C[C@H](NC(=O)c2cc(=O)[nH]c3cc(F)ccc23)[C@@H](C2CC2)C1` was tested, and the Potency was inconclusive: 15.8 µM [inhibitor, partial curve, poor fit].

Source: PubChem BioAssay AID1347165 (National Center for Advancing Translational Sciences (NCATS), 2019)
Further: nearly all actives have a fitted effect of over 70% in size.
Potency means the concentration at half of the fitted maximal effect; tags describe the fitted curve by direction and shape.
